Assay results reported in article PMC12820563.
Some of the results follow. The list includes weakly bound sequences.

Molecular target: T1, MBP-FoxP3dN (UniProt Q99JB6)
T1 sequence: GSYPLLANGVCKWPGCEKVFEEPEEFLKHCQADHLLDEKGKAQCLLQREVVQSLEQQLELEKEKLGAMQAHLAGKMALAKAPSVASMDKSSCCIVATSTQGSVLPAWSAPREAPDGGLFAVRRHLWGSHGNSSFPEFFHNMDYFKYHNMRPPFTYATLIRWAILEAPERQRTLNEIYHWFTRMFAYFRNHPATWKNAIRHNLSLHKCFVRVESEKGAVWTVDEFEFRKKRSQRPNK
Test: PD-seq (MBP pull-down with sequencing)
Details: 20 mM Tris-HCl pH 7.5, 100 mM NaCl, 1.5 mM MgCl2, 0.4 uM protein, 0.1 uM dsDNA library, 30 min, room temperature, amylose pull-down; high values mean tight binding; double strand, one strand shown

Sequence | binding signal (RPM ratio (pull-down/input))
GATGATTGTTCTCCCAGCTGATGAATTGTGTAGCTCGAGTAAACAAATTTTCCTAATCTTTCTGTTCAAGCGCCATCTAC | 2.51
GATGATTGTTCTCCCAGCTGATGAATTATCTATGTCGAGTAAACAAATTTTCCTAATCTTTCTGTTCAAGCGCCATCTAC | 0.418
GATGATTGTTCTCCCAGCTGATGAATTGAGCGTGTCGAGTAAACAAATTTTCCTAATCTTTCTGTTCAAGCGCCATCTAC | 3.03
GATGATTGTTCTCCCAGCTGATGAATTCCATAGGTCGAGTAAACAAATTTTCCTAATCTTTCTGTTCAAGCGCCATCTAC | 0.268
GATGATTGTTCTCCCAGCTGATGAATTTCGGCAGTCGAGTAAACAAATTTTCCTAATCTTTCTGTTCAAGCGCCATCTAC | 0.398
GATGATTGTTCTCCCAGCTGATGAATTGTACTCCTCGAGTAAACAAATTTTCCTAATCTTTCTGTTCAAGCGCCATCTAC | 0.526
GATGATTGTTCTCCCAGCTGATGAATTTGTCATATCGAGTAAACAAATTTTCCTAATCTTTCTGTTCAAGCGCCATCTAC | 4.27
GATGATTGTTCTCCCAGCTGATGAATTGTCCTGTTCGAGTAAACAAATTTTCCTAATCTTTCTGTTCAAGCGCCATCTAC | 0.433
GATGATTGTTCTCCCAGCTGATGAATTAACGATATCGAGTAAACAAATTTTCCTAATCTTTCTGTTCAAGCGCCATCTAC | 0.471
GATGATTGTTCTCCCAGCTGATGAATTCGGTTAGTCGAGTAAACAAATTTTCCTAATCTTTCTGTTCAAGCGCCATCTAC | 1.31
GATGATTGTTCTCCCAGCTGATGAATTGACAGGATCGAGTAAACAAATTTTCCTAATCTTTCTGTTCAAGCGCCATCTAC | 0.291
GATGATTGTTCTCCCAGCTGATGAATTCATTACATCGAGTAAACAAATTTTCCTAATCTTTCTGTTCAAGCGCCATCTAC | 0.562
GATGATTGTTCTCCCAGCTGATGAATTAAATGGCTCGAGTAAACAAATTTTCCTAATCTTTCTGTTCAAGCGCCATCTAC | 0.417
GATGATTGTTCTCCCAGCTGATGAATTTGGGCATTCGAGTAAACAAATTTTCCTAATCTTTCTGTTCAAGCGCCATCTAC | 4.79
GATGATTGTTCTCCCAGCTGATGAATTAGGGCGCTCGAGTAAACAAATTTTCCTAATCTTTCTGTTCAAGCGCCATCTAC | 0.37
GATGATTGTTCTCCCAGCTGATGAATTAAGTGCGTCGAGTAAACAAATTTTCCTAATCTTTCTGTTCAAGCGCCATCTAC | 0.935
GATGATTGTTCTCCCAGCTGATGAATTGAGGACCTCGAGTAAACAAATTTTCCTAATCTTTCTGTTCAAGCGCCATCTAC | 0.228
GATGATTGTTCTCCCAGCTGATGAATTCCCCGTTTCGAGTAAACAAATTTTCCTAATCTTTCTGTTCAAGCGCCATCTAC | 0.281
